According to PubChem BioAssay (NCATS):
Values joined by “and” are separate entries in the source; they are usually repeats but may differ in a detail not shown here. Equal values may be shown once. Inconclusive results, whose numbers are uncertain, are shown with a selection of clear calls. Potencies of inconclusive entries are doubtful fits and often do not repeat. Some compounds were tested as several samples or in several runs, with calls that do not always agree. Active and inactive are the calls of the source. The call rests on the fitted dose curve; in most records, active means well fitted inhibition curve with a large enough effect; inconclusive means small, poorly fitted or top-dose-only effect; inactive means flat fitted curve, though single readings scatter.

Assay: P-glycoprotein substrates identified in KB-8-5-11 adenocarcinoma cell line, qHTS therapeutic library screen (AID 1346987); further: nearly all actives have a fitted effect of over 65% in size
Settings: KB-8-5-11 (P-gp overexpressing) viability, CellTiter-Glo, 72 h; series mostly up to 44.5 µM; activity change, negative = cytotoxicity: at the top concentration
In short: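 P-gp-mediated resistance screen: KB-8-5-11 cells treated 72 h with compounds in dose-response. CellTiter-Glo viability.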
On the % scale 0 is the no-effect control and ±100 the full control effect; potency means the concentration at half of the fitted maximal effect; tags describe the fitted curve by direction and shape.

Which Potency does the source give for COC(=O)C1=C(C)NC(C)=C(C(=O)OCC(C)=O)C1c1ccccc1[N+](=O)[O-] (configuration not stated) here?
Its Potency is active: 7.31 µM.

For O=C(Nc1cc2cc[nH]c2cn1)c1ccccc1, which Potency is on record?
Its Potency is inconclusive: 20.9 µM [inhibitor, partial curve] and inconclusive: 16.4 µM [inhibitor, partial curve].

With CC(C)(C)NC[C@H](O)COc1cccc2c1CCCC2=O as the molecule, how does the “activity change, negative = cytotoxicity” value read?
Its value is inactive: 0.0961% [at 17.3 µM].

Which Potency does the source give for NC(=O)c1cccc2[nH]c(-c3ccc([C@H]4CCCN4)cc3F)nc12 here?
Its Potency is inconclusive: 37.2 µM [inhibitor, partial curve, poor fit].

With CCCCCCCCCCCCOCCOCCOCCOCCOCCOCCOCCOCCOCCO as the molecule, how does the Potency read?
Its Potency is active: 3.26 µM.

With O=C1CN(/N=C/c2ccc([N+](=O)[O-])o2)C(=O)N1 as the molecule, how does the Potency read?
The Potency was inconclusive: 29.1 µM [inhibitor, single point].

For OC[C@]1(O)OC[C@@H](O)[C@H](O)[C@@H]1O, which “activity change, negative = cytotoxicity” value is on record?
Its value is inactive: 4.85%.

With COc1ccc(C2Sc3ccccc3N(CCN(C)C)C(=O)C2OC(C)=O)cc1 (configuration not stated) as the molecule, how does the Potency read?
The Potency was inconclusive: 3.99 µM [inhibitor, partial curve, poor fit].

Which Potency does the source give for Clc1ccccc1-c1nc(-c2ccncc2)no1 here?
The Potency was inconclusive: 16.4 µM [inhibitor, single point].

With O=C(NOCC1CC1)c1ccc(F)c(F)c1Nc1ccc(I)cc1Cl as the molecule, how does the Potency read?
The Potency was active: 18.4 µM and inconclusive: 29.1 µM [inhibitor, single point].

With CC(C=CC1=C(C)CCCC1(C)C)=CC=CC(C)=CC(=O)O as the molecule, how does the Potency read?
Its Potency is “inactive”.

For COc1cccc(-c2ccc(NC(=O)C3=C(C(=O)O)CCC3)c(F)c2)c1, which Potency is on record?
The Potency was inconclusive: 9.35 µM [inhibitor, full curve] and inconclusive: 8.2 µM [inhibitor, partial curve].

Which Potency does the source give for COc1ccc(-c2cc(=S)ss2)cc1 here?
The Potency was inconclusive: 29.1 µM [inhibitor, single point].

Which Potency does the source give for N=C1N=C(N)c2cc3ccccc3cc21 here?
Its Potency is inconclusive: 31.6 µM [inhibitor, single point].

Which Potency does the source give for Oc1c(Br)cc(Br)c2cccnc12 here?
The Potency was inconclusive: 5.8 µM [inhibitor, partial curve].

Which Potency does the source give for C[C@](N)(Cc1ccc(O)c(O)c1)C(=O)O here?
The Potency was “inactive”.

For c1ccc(CCNc2nc(-c3ccccc3)cs2)cc1, which Potency is on record?
Its Potency is inconclusive: 20.6 µM [inhibitor, partial curve].

For Cc1c(NC(=O)c2ccc(C(C)(C)C)cc2)cccc1-c1cn(C)c(=O)c(Nc2ccc(C(=O)N3CCOCC3)cc2)n1, which Potency is on record?
Its Potency is inconclusive: 11.4 µM [inhibitor, partial curve, poor fit].

With CCCS(=O)c1ccc2nc(NC(=O)OC)[nH]c2c1 (configuration not stated) as the molecule, how does the Potency read?
The Potency was active: 20.9 µM and active: 13 µM.

Which “activity change, negative = cytotoxicity” value does the source give for COc1ccc2cc(CCC(C)=O)ccc2c1 here?
Its value is inactive: -31.2% [at 17.3 µM].

With Nc1nc2ccc([N+](=O)[O-])cc2s1 as the molecule, how does the Potency read?
The Potency was inconclusive: 56.2 µM [inhibitor, single point].

With C=CC(N)CCC(=O)O (configuration not stated) as the molecule, how does the “activity change, negative = cytotoxicity” value read?
Its value is inactive: -6.44%.

Which Potency does the source give for CCCCC1C(=O)N(c2ccccc2)N(c2ccc(O)cc2)C1=O (configuration not stated) here?
Its Potency is inconclusive: 8.8 µM [inhibitor, single point].

With O=c1cc(-c2ccccc2)oc2ccccc12 as the molecule, how does the Potency read?
The Potency was inconclusive: 56.2 µM [inhibitor, single point].

For O=C1NC(=O)/C(=C/c2ccc3c(c2)OC(F)(F)O3)S1, which Potency is on record?
The Potency was inconclusive: 29.1 µM [inhibitor, single point].

Which Potency does the source give for CC=CC[C@@H](C)C(=O)[C@H]1C(=O)N[C@@H](C(C)C)C(=O)N(C)CC(=O)N(C)[C@@H](CC(C)C)C(=O)N[C@@H](C(C)C)C(=O)N(C)[C@@H](CC(C)C)C(=O)N[C@@H](C)C(=O)N[C@H](C)C(=O)N(C)[C@@H](CC(C)C)C(=O)N(C)[C@@H](CC(C)C)C(=O)N(C)[C@@H](C(C)C)C(=O)N1C here?
The Potency was inconclusive: 26.4 µM [inhibitor, single point].

Which Potency does the source give for C/C(=N\O)c1ccc(OCC(=O)N2CCCCC2)cc1 here?
Its Potency is inconclusive: 16.4 µM [inhibitor, single point].

With CC1(C)NC(=O)N(c2ccc([N+](=O)[O-])c(C(F)(F)F)c2)C1=O as the molecule, how does the Potency read?
Its Potency is active: 13 µM.

With O=C1c2ccccc2-[n+]2ccc3c([nH]c4ccccc43)c21 as the molecule, how does the Potency read?
Its Potency is active: 3.32 µM.

With CN1CCN(C2Cc3ccccc3Sc3ccc(Cl)cc32)CC1 (configuration not stated) as the molecule, how does the “activity change, negative = cytotoxicity” value read?
The value was inactive: -26%.

Which “activity change, negative = cytotoxicity” value does the source give for O=C(/C=C/c1ccccc1)NCCO here?
Its value is inactive: -5.56%.

With CCCCCCOc1ccccc1C(N)=O as the molecule, how does the Potency read?
Its Potency is active: 18.4 µM.

For NS(=O)(=O)c1cccc2c1C(=O)c1cccc(O)c1C2=O, which Potency is on record?
The Potency was inconclusive: 37.2 µM [inhibitor, single point].

With CN1CCN(c2cc3c(nn2)Oc2ccccc2N3C)CC1 as the molecule, how does the Potency read?
The Potency was inconclusive: 18.4 µM [inhibitor, partial curve, poor fit].

With NC(=O)Cc1cccc(C(=O)c2ccccc2)c1N as the molecule, how does the “activity change, negative = cytotoxicity” value read?
Its value is inactive: 2.48%.

Which “activity change, negative = cytotoxicity” value does the source give for Oc1ccc(/C=C/c2cc(O)cc(O)c2)cc1 here?
The value was inactive: -11.9% [at 17.3 µM].

Which Potency does the source give for CCN(CC)CCOc1ccc(/C(=C(\Cl)c2ccccc2)c2ccccc2)cc1 here?
The Potency was inconclusive: 29.1 µM [inhibitor, single point] and inconclusive: 23.1 µM [inhibitor, single point].
